{
  "source": "PubChem BioAssay AID1460",
  "about": "(National Center for Advancing Translational Sciences (NCATS), 2008)",
  "note": "In all, about 270,000 compounds went through this assay and about 5,800 (2.1%) were called active. The shares of active, inactive and inconclusive entries below differ from those in the screen. Calls come from the whole dose curve; as a rule, active = well fitted inhibition curve with a large enough effect; inconclusive = small, poorly fitted or top-dose-only effect; inactive = flat fitted curve, though single readings scatter. A potency beside an inconclusive call is a rough fit, not a confirmed value. % is set by controls: 0 for no effect and ±100 for the full control effect; potency is the fitted concentration of half-maximal effect; tags give direction and shape of the fitted curve.",
  "data": [
    {"target": "Microtubule-associated protein tau (Homo sapiens) (UniProt P10636)", "sequence (P10636 whole entry, looked up)": "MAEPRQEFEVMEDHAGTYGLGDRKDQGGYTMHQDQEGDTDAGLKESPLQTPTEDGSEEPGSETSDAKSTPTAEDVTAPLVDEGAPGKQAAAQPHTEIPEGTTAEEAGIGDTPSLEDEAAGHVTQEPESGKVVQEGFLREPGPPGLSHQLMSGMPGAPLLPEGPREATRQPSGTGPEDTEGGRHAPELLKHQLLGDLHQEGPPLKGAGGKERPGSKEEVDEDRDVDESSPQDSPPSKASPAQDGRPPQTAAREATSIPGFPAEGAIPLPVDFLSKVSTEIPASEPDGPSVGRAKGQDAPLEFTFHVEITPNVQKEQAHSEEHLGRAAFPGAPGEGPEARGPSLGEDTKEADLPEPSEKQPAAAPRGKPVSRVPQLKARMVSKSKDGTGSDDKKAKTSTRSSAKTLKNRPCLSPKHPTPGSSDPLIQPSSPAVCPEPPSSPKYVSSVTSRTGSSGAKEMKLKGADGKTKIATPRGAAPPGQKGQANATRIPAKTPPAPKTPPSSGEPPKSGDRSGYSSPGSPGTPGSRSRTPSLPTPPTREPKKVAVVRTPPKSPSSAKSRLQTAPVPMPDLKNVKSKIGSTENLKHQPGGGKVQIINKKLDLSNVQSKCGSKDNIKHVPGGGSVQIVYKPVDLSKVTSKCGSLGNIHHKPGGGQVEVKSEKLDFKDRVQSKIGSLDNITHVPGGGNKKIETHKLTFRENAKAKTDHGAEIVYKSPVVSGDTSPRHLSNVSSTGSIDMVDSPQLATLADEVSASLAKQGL", "assay": "qHTS for Inhibitors of Tau Fibril Formation, Thioflavin T Binding; note: nearly all actives have a fitted effect of over 55% in size", "details": "recombinant tau K18 P301L, heparin-induced fibrillization, ThT fluorescence; series mostly up to 57.4 µM", "in_short": "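ThT emission at 510 nm, taken 1 hr after adding 30 uM dye, quantifies aggregates formed when 20 uM heparin acts on human tau K18 P301L for 6 hr at 37 C.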", "values": [
      {"smiles": "COc1ccc(C(=O)Nn2c(C)ccc2C)cc1OC", "Potency": "inconclusive: 12.6 µM [inhibitor, single point]"},
      {"smiles": "CCCCOC(=O)c1ccc(NC(=O)c2sc3nc(C)cc(C)c3c2N)cc1", "Potency": "inconclusive: 0.631 µM [inhibitor, partial curve]"},
      {"smiles": "Cc1cccc(NC(=S)NCCc2ccccc2)n1", "Potency": "inactive"},
      {"smiles": "CN(C(=O)c1ccc2c(c1)C(=O)N(CCC1=CCCCC1)C2=O)C1CCCCC1", "Potency": "inconclusive: 25.1 µM [inhibitor, partial curve]"},
      {"smiles": "CCOc1cc(NC(=O)c2cnccn2)c(OCC)cc1NC(=O)c1ccc(OC)cc1", "Potency": "inconclusive: 1.26 µM [inhibitor, partial curve]"},
      {"smiles": "Cc1cc2c(cc1S(=O)(=O)Nc1cc(C(F)(F)F)cc(C(F)(F)F)c1)OCC(=O)N2", "Potency": "inactive"},
      {"smiles": "CCc1ccc(Nc2nc3ccccc3nc2NS(=O)(=O)c2ccccc2)cc1", "Potency": "inconclusive: 17.8 µM [inhibitor, partial curve]"},
      {"smiles": "O=C(COC(=O)Cc1ccc(S(=O)(=O)N2CCOCC2)s1)NCc1ccccc1", "Potency": "inconclusive: 35.5 µM [inhibitor, partial curve]"},
      {"smiles": "Cc1cc(Cl)ccc1NC(=O)CCC(=O)O", "Potency": "inactive"},
      {"smiles": "Cc1ccccc1OCC(=O)Nc1ccc2c(c1)COC2=O", "Potency": "inconclusive: 8.91 µM [inhibitor, partial curve]"},
      {"smiles": "CCO[C@@H]1OC(C(=O)Nc2ccccc2)=C[C@H](c2coc3ccccc3c2=O)[C@H]1CCCO", "Potency": "inconclusive: 0.355 µM [activator, single point]"},
      {"smiles": "CCOC(=O)c1c(-c2cccs2)csc1NC(=O)CN1CCOCC1", "Potency": "inactive"},
      {"smiles": "c1ccc(C2=Nc3ccccc3OC2)cc1", "Potency": "inconclusive: 15.8 µM [inhibitor, partial curve]"},
      {"smiles": "CN(C)/C=N/c1ncn(-c2ncc(C(F)(F)F)cc2Cl)n1", "Potency": "inactive"},
      {"smiles": "O=C1CC(Sc2nnc(-c3ccccc3O)o2)C(=O)N1c1ccccc1", "note": "(stereo unspecified)", "Potency": "inconclusive: 28.2 µM [inhibitor, partial curve]"},
      {"smiles": "C#CCn1c(O)c(N=NC(=O)C(O)c2ccccc2)c2ccccc21", "note": "(stereo unspecified)", "Potency": "inconclusive: 17.8 µM [inhibitor, partial curve, poor fit]"},
      {"smiles": "O=C(NCCSc1c[nH]c2ccccc12)c1ccccc1Cl", "Potency": "inactive"},
      {"smiles": "COc1ccc(NC(=O)C2CCN(S(=O)(=O)c3c(C)noc3/C=C/c3cccs3)CC2)cc1Cl", "Potency": "inactive"},
      {"smiles": "CCCOc1ccccc1-n1sc2c(c1=S)-c1cc(OC)cc3c1N(C(=O)C3=O)C2(C)C", "Potency": "inconclusive: 12.6 µM [inhibitor, partial curve]"},
      {"smiles": "COc1ccc(/C=N/NC(=O)Nc2cccc3nsnc23)cc1OC", "Potency": "inconclusive: 8.91 µM [inhibitor, full curve]"},
      {"smiles": "Cc1cnc(C(=O)OCC(=O)NC23CC4CC(CC(C4)C2)C3)cn1", "Potency": "inactive"},
      {"smiles": "CCC(=O)Nc1ccc(C(=O)Nc2ccc(Br)cc2F)cc1", "Potency": "inconclusive: 1.26 µM [inhibitor, full curve]"},
      {"smiles": "O=[N+]([O-])c1ccc(O)c(/C=N/Nc2ccccc2Cl)c1", "Potency": "inconclusive: 0.891 µM [inhibitor, full curve]"},
      {"smiles": "CCc1c(C)sc2c1CCN(Cc1ccccc1F)C2c1ccccc1", "note": "(stereo unspecified)", "Potency": "inconclusive: 31.6 µM [inhibitor, single point]"},
      {"smiles": "CCOc1ccc(-c2c(C)nn3c(C)c(C(=O)NCCc4ccc(C)cc4)cnc23)cc1OCC", "Potency": "inconclusive: 0.282 µM [inhibitor, partial curve]"},
      {"smiles": "COc1cc(/C=C(\\C#N)C(=O)Nc2ccccc2C(=O)O)cc(Cl)c1OC", "Potency": "inconclusive: 20 µM [inhibitor, partial curve, poor fit]"},
      {"smiles": "CC(Sc1nnnn1C)C(=O)NC1CCCc2ccccc21", "note": "(stereo unspecified)", "Potency": "inactive"},
      {"smiles": "c1ccc(-c2cc3n(c2)CCc2ccccc2-3)cc1", "Potency": "inconclusive: 10 µM [inhibitor, partial curve]"},
      {"smiles": "CNC(=O)C(C)NS(=O)(=O)c1ccc(F)cc1", "note": "(stereo unspecified)", "Potency": "inactive"},
      {"smiles": "O=C(C1=NOC(CNc2ncc(C(F)(F)F)cc2Cl)C1)N1CCOCC1", "note": "(stereo unspecified)", "Potency": "inactive"},
      {"smiles": "COc1ccc(CCNc2ccc(C)cc2)cc1", "Potency": "inconclusive: 7.08 µM [inhibitor, partial curve]"},
      {"smiles": "Cc1ccc(-c2nn(C)c(=O)c3ccccc23)cc1CNC(=O)CN1CCOCC1", "Potency": "inactive"},
      {"smiles": "Cn1ccnc1SCC(=O)c1ccc([N+](=O)[O-])cc1", "Potency": "inconclusive: 22.4 µM [inhibitor, partial curve]"},
      {"smiles": "CCN(CC)CCn1c2ccccc2c2cnc(N)c(C#N)c21", "Potency": "inconclusive: 20 µM [inhibitor, partial curve]"},
      {"smiles": "CCCC(C)c1nnc(NC(=O)CS(=O)(=O)Cc2ccccc2)s1", "note": "(stereo unspecified)", "Potency": "inconclusive: 28.2 µM [inhibitor, partial curve]"},
      {"smiles": "CN1CC=C2C(C#N)=C(N)C(C#N)(C#N)C(c3ccsc3)C2C1", "note": "(stereo unspecified)", "Potency": "active: 15.8 µM"},
      {"smiles": "Cc1ccc(-n2c(C)csc2=N)cc1", "Potency": "inconclusive: 28.2 µM [inhibitor, partial curve]"},
      {"smiles": "CCOc1ccc(N2C(=O)/C(=C/c3ccco3)N(C)C2=S)cc1", "Potency": "inconclusive: 22.4 µM [inhibitor, single point]"},
      {"smiles": "Cc1ccc2cc(C3CC(c4ccco4)=NN3S(C)(=O)=O)c(Cl)nc2c1", "note": "(stereo unspecified)", "Potency": "inactive"},
      {"smiles": "CCCCCCC(=O)Nc1nc(C)c(-c2csc(Nc3cc(Cl)ccc3C)n2)s1", "Potency": "inconclusive: 17.8 µM [inhibitor, partial curve]"},
      {"smiles": "Cc1ccccc1Nc1c(-c2ccc(N3CCOCC3)cc2)nc2ccc(Br)cn12", "Potency": "inconclusive: 2 µM [inhibitor, full curve]"},
      {"smiles": "Cc1nn(-c2nc3ccccc3s2)c(N)c1-c1ccc(Cl)cc1", "Potency": "inconclusive: 14.1 µM [inhibitor, partial curve]"},
      {"smiles": "O=S(NCc1ccco1)C12CC3CC(CC(C3)C1)C2", "note": "(stereo unspecified)", "Potency": "inconclusive: 22.4 µM [inhibitor, single point]"},
      {"smiles": "Clc1ccc(OCc2nc(-c3ccncc3)no2)c(Br)c1", "Potency": "inconclusive: 14.1 µM [inhibitor, partial curve]"},
      {"smiles": "COc1ccc2c(c1)c1nc3ccccc3nc1n2Cc1ccc(OC(C)C)c(OC)c1", "Potency": "inconclusive: 10 µM [inhibitor, partial curve]"},
      {"smiles": "O=c1cc(O)nc(SCc2ccc(Cl)cc2)[nH]1", "Potency": "inconclusive: 17.8 µM [inhibitor, partial curve, poor fit]"},
      {"smiles": "Cc1ccc2nc(C)cc(N3CCOCC3)c2c1", "Potency": "inactive"},
      {"smiles": "Cc1ccccc1OCC(=O)Nc1ccccc1-c1ccccc1", "Potency": "inconclusive: 14.1 µM [inhibitor, partial curve]"},
      {"smiles": "Cc1ccc(S(=O)(=O)Oc2ccc(C)cc2/C=N/N=C2\\NC(=O)C(C)S2)cc1", "note": "(stereo unspecified)", "Potency": "inactive"},
      {"smiles": "CNC(=O)CN1C(=O)COc2ccc(S(=O)(=O)N3CCC(C)CC3)cc21", "Potency": "inactive"},
      {"smiles": "Cc1ccc(C(=O)NC2CC3CCCC(C2)N3C(=S)NCc2ccco2)cc1", "note": "(stereo unspecified)", "Potency": "inconclusive: 25.1 µM [inhibitor, single point]"},
      {"smiles": "CN(C)/C=C/C(=O)c1cnc(-c2ccccc2)s1", "Potency": "inconclusive: 28.2 µM [inhibitor, partial curve]"},
      {"smiles": "COC(=O)c1ccc(CSC(=N)N)o1", "Potency": "inconclusive: 39.8 µM [inhibitor, single point]"},
      {"smiles": "COc1ccc(C2=NOC3(CC(=O)N(c4ccc(F)cc4)C3=O)C2)cc1", "note": "(stereo unspecified)", "Potency": "inactive"},
      {"smiles": "Cn1c(SCC(=O)c2ccc3c(c2)Cc2ccccc2-3)nnc1-c1ccccc1", "Potency": "inconclusive: 2.51 µM [inhibitor, partial curve]"},
      {"smiles": "COc1ccc(C(=O)Nc2ccc(S(=O)(=O)Nc3onc(C)c3C)cc2)cc1", "Potency": "inactive"},
      {"smiles": "C/C(=N\\Nc1cccc(C(=O)O)c1)c1ccc(Cl)s1", "Potency": "inconclusive: 15.8 µM [inhibitor, partial curve]"},
      {"smiles": "O=C(/C=C\\c1ccccc1)c1ccccc1O", "activity, negative = inhibition": "inactive: -8.64% [at 11.5 µM]"},
      {"smiles": "CCn1c(NC(=O)c2ccc(COc3ccc(C)cc3[N+](=O)[O-])o2)nc2ccccc21", "Potency": "inconclusive: 2.82 µM [inhibitor, full curve]"},
      {"smiles": "CCOc1ccc(N/C(C)=C/C(=O)c2ccc3c(c2)OCCO3)cc1", "Potency": "inconclusive: 4.47 µM [inhibitor, full curve]"},
      {"smiles": "O=C(Oc1c(-c2ccccc2)c(=O)n2c3c(cccc13)CC2)c1cccc([N+](=O)[O-])c1", "Potency": "inconclusive: 17.8 µM [inhibitor, partial curve]"},
      {"smiles": "COc1cc(/C=C(/C(=O)c2cccs2)c2nc3ccccc3[nH]2)ccc1O", "Potency": "inconclusive: 22.4 µM [inhibitor, single point]"},
      {"smiles": "COCC1C2CC[C@H]3C(OCc4ccc(OC)cc4)OC[C@]4(C)[C@H]3C2=C(CN4C(=O)OC(C)(C)C)[C@H](C)C1COC", "note": "(stereo partly specified)", "Potency": "inconclusive: 35.5 µM [inhibitor, single point]"},
      {"smiles": "C#CCSc1cc(C(F)(F)F)nc(-c2ccccn2)n1", "Potency": "inactive"},
      {"smiles": "C/C(=N\\NC(=S)Nc1ccccc1C)c1ccc(O)cc1", "Potency": "inconclusive: 14.1 µM [inhibitor, partial curve]"},
      {"smiles": "CCSc1nc(-c2cccs2)nc2ccccc12", "Potency": "inconclusive: 39.8 µM [inhibitor, single point]"},
      {"smiles": "O=S(=O)(NC1CC1)c1ccc(S(=O)(=O)N2CCCC3(CCCCC3)C2)cc1", "Potency": "inactive"},
      {"smiles": "O=C(NC1(C(F)(F)F)N=C2SCCN2C1=O)C1CCCCC1", "note": "(stereo unspecified)", "Potency": "inconclusive: 35.5 µM [inhibitor, single point]"},
      {"smiles": "COc1ccc2c(c1)C(=O)C(=O)N2", "Potency": "inactive"},
      {"smiles": "Cc1ccc(NC(=O)COc2cccc(/C=C3\\SC(=S)N(CCC(=O)O)C3=O)c2)cc1Cl", "Potency": "active: 12.6 µM"},
      {"smiles": "COc1cccc(/C=N/NC(=O)CCCc2ccc(OC)c(C)c2)c1", "Potency": "inconclusive: 20 µM [inhibitor, partial curve]"}
    ]}
  ]
}
